Experimental data taken from the supplement of paper PMC10126150.
Sequences with one replicate were seen in a single cluster, so their values are uncertain.
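Further: ATP exposure 15 min at 22 °C before imaging.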

These sequences were tested on ATP (assay: switch fluorescence ratio, 500 uM ATP over buffer (Cy3 cluster intensity, sum of 5 cycles each) (fold (ratio)); higher = stronger signal-on switching upon ATP binding; sequences stand for … in TCGTCGGCAGCGTCAGATGTGTATAAGAGACAGTTTTTTTTTTTTTTTTTTTTTTTTT…TC). Details: aptamer strand: ATP DNA aptamer (quencher-CACCTGGGGGAGTATTGCGGAGGAAGG + anchor), 100 nM annealed; ATP concentration: 500 uM; one replicate.
Summary of the method: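 Five buffer/ATP imaging cycles were run on Cy3-labelled switching-strand clusters on a modified Illumina MiSeq flow-cell, with NaOH stripping and re-annealing between cycles. In each cycle, clusters annealed to 100 nM quencher-labelled ATP aptamer were imaged in selection buffer, then after 15 min with 500 uM ATP at 22 °C. Per cluster, the fluorescence ratio is summed target-cycle over summed buffer-cycle Cy3 intensity, averaged per switch-domain sequence. Only clusters within 100-1000 RFU were kept.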
In the case of GCTCTAGCAC, the switch fluorescence ratio is reported as 1.07. TTATGGACAA was tested, and the switch fluorescence ratio was 1.02. In the case of ATATCCTTGC, the switch fluorescence ratio is reported as 1.64. Sequence TGCCGCACTT has a switch fluorescence ratio of 1.07. In the case of CGACTAGTTT, the switch fluorescence ratio is reported as 0.989. Work on TTACCGCGTA yielded a switch fluorescence ratio of 1.06. In the case of GGGAAATTT, the switch fluorescence ratio is reported as 1.1. With ACTGAGGTGA the switch fluorescence ratio was 1.03. AAGTTCTGCA showed a switch fluorescence ratio of 0.959. AATGAGGCGG showed a switch fluorescence ratio of 0.953. GAGCGTGGGC gave a switch fluorescence ratio of 0.969. Work on TCCCCACCGA yielded a switch fluorescence ratio of 1.29. In the case of GCGATCGGTA, the switch fluorescence ratio is reported as 0.979. With TCATGACGCT the switch fluorescence ratio was 0.976. Sequence CTAACCAGTT has a switch fluorescence ratio of 0.971. GTTAGTCCAC gave a switch fluorescence ratio of 0.956. In the case of GTTCGTTCTT, the switch fluorescence ratio is reported as 1.01. ACACTGTCGC was tested, and the switch fluorescence ratio was 1.08. ATGTAATTTT was tested, and the switch fluorescence ratio was 1.02. TACTCATAAT showed a switch fluorescence ratio of 1.04. Work on ACTATTTTGA yielded a switch fluorescence ratio of 1.04. CTCATGCATC gave a switch fluorescence ratio of 2.54. GTCCGGCATA showed a switch fluorescence ratio of 1.2. Work on TAACATTGTT yielded a switch fluorescence ratio of 0.989. For TATCCACACC, the switch fluorescence ratio was 1.18. In the case of CCCTATGCTG, the switch fluorescence ratio is reported as 1.16. For TACGAAGTT, the switch fluorescence ratio was 1. CATCTCGACT was tested, and the switch fluorescence ratio was 0.998. Sequence ATAGGGTTTT has a switch fluorescence ratio of 0.989. ATGAATTTAC was tested, and the switch fluorescence ratio was 1.02. For TTGAGTGATT, the switch fluorescence ratio was 1.01. GGTGCAGTCG showed a switch fluorescence ratio of 1.08. Sequence ACTCTCGAAA has a switch fluorescence ratio of 1.56. ACCCTGTATG was tested, and the switch fluorescence ratio was 0.989. In the case of TACTACGCCC, the switch fluorescence ratio is reported as 3.06. For GAAGCAGGAG, the switch fluorescence ratio was 1.76. GCCACAGAGC showed a switch fluorescence ratio of 1.1. GGTCCGTTTT was tested, and the switch fluorescence ratio was 1.05. ATGGTGCTTG gave a switch fluorescence ratio of 1.04. ATCGACACGG was tested, and the switch fluorescence ratio was 1.05. CGGGTGGTT gave a switch fluorescence ratio of 0.995. Sequence TATCACTGAT has a switch fluorescence ratio of 1.04. With CCTAGCCATC the switch fluorescence ratio was 2.83. Sequence TCGCAGGGCT has a switch fluorescence ratio of 1.11. CCTTATGGAG gave a switch fluorescence ratio of 1.04. ACTTGGTATC showed a switch fluorescence ratio of 0.988. GGCATTGGAG gave a switch fluorescence ratio of 0.988. GTTTATATCG gave a switch fluorescence ratio of 0.972. For TTCAATTGAT, the switch fluorescence ratio was 0.999. Work on TATATAACGA yielded a switch fluorescence ratio of 0.995. Work on ACCAAGCTCT yielded a switch fluorescence ratio of 0.981. Sequence AATTGGTAAG has a switch fluorescence ratio of 0.974. Sequence TAGGTGCGG has a switch fluorescence ratio of 1.03. Sequence TACATCAATC has a switch fluorescence ratio of 1.06. Work on GCACCGCAGT yielded a switch fluorescence ratio of 1.67. AAGCAACCGG showed a switch fluorescence ratio of 1.01. TTTTGAAGG was tested, and the switch fluorescence ratio was 0.926. For ACAATTTGTA, the switch fluorescence ratio was 0.974. With GTGTGATAAA the switch fluorescence ratio was 1.02. With TAGCAAAGG the switch fluorescence ratio was 1.12. Work on AAAATGTGTC yielded a switch fluorescence ratio of 1. Sequence ACGGCGGTGG has a switch fluorescence ratio of 0.953. GCTAGCACCT gave a switch fluorescence ratio of 1.09. GGCTGCGTA showed a switch fluorescence ratio of 1.06. Work on AGGGATGCGA yielded a switch fluorescence ratio of 1.43. With CAGCGACGAA the switch fluorescence ratio was 1.03. Sequence GGATGTGAG has a switch fluorescence ratio of 0.976. With AGGGATGAAG the switch fluorescence ratio was 1.02. For ACTGAGGTTT, the switch fluorescence ratio was 1.03. For GAGAGTGCTA, the switch fluorescence ratio was 1. In the case of GTACTTCTAA, the switch fluorescence ratio is reported as 1.04. AGTAACTGA showed a switch fluorescence ratio of 1.01. AAGGAGGATC showed a switch fluorescence ratio of 0.992. In the case of AACGAAGGAG, the switch fluorescence ratio is reported as 0.978. Work on TATTAAAGAG yielded a switch fluorescence ratio of 0.934. With GGGCTCTAAT the switch fluorescence ratio was 0.998. ATTCGCGTA gave a switch fluorescence ratio of 1.04. With GTTGAGATCT the switch fluorescence ratio was 1.02. TTAACATAT showed a switch fluorescence ratio of 1.04. Work on AGCACAGAGT yielded a switch fluorescence ratio of 0.989. CTTGGCTCTA was tested, and the switch fluorescence ratio was 0.969. AGATTACTGA showed a switch fluorescence ratio of 1.05. With TTACCAAGAG the switch fluorescence ratio was 1.02. CGGTCATTAA was tested, and the switch fluorescence ratio was 1. GGTTGGGCCC gave a switch fluorescence ratio of 0.98. GGGCAGCATT showed a switch fluorescence ratio of 1. AGATCGCGAG was tested, and the switch fluorescence ratio was 1.02. AGTACACCTG gave a switch fluorescence ratio of 1.08. Sequence GAATCGAGGG has a switch fluorescence ratio of 0.975. Work on CTTATTGTAC yielded a switch fluorescence ratio of 1.07. ACGAGAATTG was tested, and the switch fluorescence ratio was 1. CACCAAAGAA gave a switch fluorescence ratio of 1.06. CACCTATTTT showed a switch fluorescence ratio of 1.11. With TTCATTAACG the switch fluorescence ratio was 1.05. In the case of CACATGATGC, the switch fluorescence ratio is reported as 1.02. With TTACTCTTAT the switch fluorescence ratio was 1.11. ATATTTTGA was tested, and the switch fluorescence ratio was 0.933. With ACGTCTGAGT the switch fluorescence ratio was 0.993. AGGATGCTGA showed a switch fluorescence ratio of 0.992. For CAACTGAGTA, the switch fluorescence ratio was 1.02. GTCAGAGTCC showed a switch fluorescence ratio of 1.01. In the case of CGGTACTGGA, the switch fluorescence ratio is reported as 1.05. For CTGACAAGGG, the switch fluorescence ratio was 1.01. For CCGGCGATTA, the switch fluorescence ratio was 1.56. Work on AAAATTAGTA yielded a switch fluorescence ratio of 0.992. Sequence ACTCAACCTG has a switch fluorescence ratio of 1.45. With GAGCAGGCG the switch fluorescence ratio was 0.876. GAGCTCTGTT was tested, and the switch fluorescence ratio was 0.99. Work on TGGAGGAGG yielded a switch fluorescence ratio of 0.986. In the case of TGTTTCAGTG, the switch fluorescence ratio is reported as 1.02. ACCTGGCCTA was tested, and the switch fluorescence ratio was 1.01. For CTACCAAAT, the switch fluorescence ratio was 1.07. Work on CACGTTAATT yielded a switch fluorescence ratio of 1.15. Sequence GGCGTTATTA has a switch fluorescence ratio of 1.01. In the case of ACCATCGAAA, the switch fluorescence ratio is reported as 1.03. CAAATCCGAG was tested, and the switch fluorescence ratio was 1.07. In the case of TATGCGGTCG, the switch fluorescence ratio is reported as 1.06. ATCCTTTTTA gave a switch fluorescence ratio of 1.04. Work on TACGGGTGGA yielded a switch fluorescence ratio of 0.98. In the case of CGATAGTTCT, the switch fluorescence ratio is reported as 0.957. Work on ATTACGTAAC yielded a switch fluorescence ratio of 1.44. In the case of CCGGAATTTT, the switch fluorescence ratio is reported as 1.11. In the case of GCGGTGCAAT, the switch fluorescence ratio is reported as 1.12. TTTTGCTCCA was tested, and the switch fluorescence ratio was 1.04. With CTGCGGCCAA the switch fluorescence ratio was 1.15. AATACTTACG showed a switch fluorescence ratio of 1.59. Work on AAAAAGATTA yielded a switch fluorescence ratio of 1.02. With ATTAACTGTA the switch fluorescence ratio was 1.18. With CGGCGCAGTG the switch fluorescence ratio was 1.07. Work on ACTAGGGAAA yielded a switch fluorescence ratio of 0.961. Sequence ATTGTCCTTG has a switch fluorescence ratio of 1.02. Work on AATTTTTGGC yielded a switch fluorescence ratio of 0.96. In the case of TGCTTTAATG, the switch fluorescence ratio is reported as 0.933. GCCTGAAGGA gave a switch fluorescence ratio of 0.98. In the case of ATGGGCCAT, the switch fluorescence ratio is reported as 0.98. With TATTTACCTA the switch fluorescence ratio was 1.1. With CATCAAAATT the switch fluorescence ratio was 1. Work on ACCGCGAATT yielded a switch fluorescence ratio of 1.36. With CATCCTGAGC the switch fluorescence ratio was 1.08. Work on TTGGCCAACC yielded a switch fluorescence ratio of 1.02. CAAGATGTTT showed a switch fluorescence ratio of 0.955. CCCACTATTT gave a switch fluorescence ratio of 1.07. TTTAGGGCAT gave a switch fluorescence ratio of 1.05. For CCATACTAAT, the switch fluorescence ratio was 1.07. TCCGTCAACG showed a switch fluorescence ratio of 1.02. Work on GGGGCTCCTG yielded a switch fluorescence ratio of 1.02. GTGGGCAAGG gave a switch fluorescence ratio of 0.982. In the case of CGAGTAGG, the switch fluorescence ratio is reported as 1.02. Sequence AAGTAGGGTT has a switch fluorescence ratio of 1.12. Sequence ACCTCGGGCT has a switch fluorescence ratio of 0.963. TGGTCTTGGG showed a switch fluorescence ratio of 0.985. CTGCCGCGGT showed a switch fluorescence ratio of 1.54. Work on AGGTCATGTT yielded a switch fluorescence ratio of 0.965. Sequence TAAAGTTTGA has a switch fluorescence ratio of 1.01. For AGGGTATCAC, the switch fluorescence ratio was 1.02. AGTCATTAGC gave a switch fluorescence ratio of 1.02. With ATGCGGATAC the switch fluorescence ratio was 1.8. Work on CAGCTACGCC yielded a switch fluorescence ratio of 0.995. GTTATGAAGC gave a switch fluorescence ratio of 1.07. GGAGGCTACC gave a switch fluorescence ratio of 0.948. In the case of AGCGTCTGAG, the switch fluorescence ratio is reported as 0.965. With CCCATAGGCT the switch fluorescence ratio was 1.02. In the case of TGCATCCAGT, the switch fluorescence ratio is reported as 0.992. TTAAGCATTA gave a switch fluorescence ratio of 1.07. CTGAGTTGGT gave a switch fluorescence ratio of 0.972. CGCTGTACAC gave a switch fluorescence ratio of 1.46. Sequence CACAGAAGAG has a switch fluorescence ratio of 1.14. Sequence TGGGGCATGG has a switch fluorescence ratio of 0.987. Sequence AAACTTGTGG has a switch fluorescence ratio of 1.01. Sequence CGGGGCGGC has a switch fluorescence ratio of 1.05. In the case of GGTTCCCCGG, the switch fluorescence ratio is reported as 1.19. GGGAATATGT was tested, and the switch fluorescence ratio was 0.971. TTTTCAGCTT was tested, and the switch fluorescence ratio was 1.99. GGTGGTTTAT was tested, and the switch fluorescence ratio was 0.994. AGTCCGCGGG showed a switch fluorescence ratio of 1.26. AAGGAGGC gave a switch fluorescence ratio of 0.984. Sequence TTATTATTA has a switch fluorescence ratio of 1.02. For GTTGTTAGTG, the switch fluorescence ratio was 0.965. Sequence CTATTACCG has a switch fluorescence ratio of 1.04. CAACAGGCTA was tested, and the switch fluorescence ratio was 1.01. GGATACGTTC was tested, and the switch fluorescence ratio was 1.01. In the case of ATTCTCAACT, the switch fluorescence ratio is reported as 1.01. Sequence AGTTGGGCGT has a switch fluorescence ratio of 0.972. ATGCTTGTAC showed a switch fluorescence ratio of 1.11. Sequence TGAAGCAGGT has a switch fluorescence ratio of 1.02. In the case of AATTGATTAT, the switch fluorescence ratio is reported as 1.02. Sequence AGGGGAACTT has a switch fluorescence ratio of 1.02. With TGGGGAGATC the switch fluorescence ratio was 1.1. With GCATGGGTAA the switch fluorescence ratio was 0.962. TGCTTCTCGG gave a switch fluorescence ratio of 0.987. In the case of GGGTGGTACG, the switch fluorescence ratio is reported as 0.978. In the case of GCGCTGGTTC, the switch fluorescence ratio is reported as 1.06. For TTTTGAACT, the switch fluorescence ratio was 0.952. Work on TATAGAATAT yielded a switch fluorescence ratio of 0.984. Sequence TTAAGCTATT has a switch fluorescence ratio of 1.01. GGGCGTAGAC gave a switch fluorescence ratio of 0.973. ACCATATAAG was tested, and the switch fluorescence ratio was 1.06. GTGTTTGTGC gave a switch fluorescence ratio of 1.04. In the case of CAGAGTCGTT, the switch fluorescence ratio is reported as 0.989. For CCGAACTGGA, the switch fluorescence ratio was 1.04. Work on TGAGCATTGT yielded a switch fluorescence ratio of 1.01.
